We go through one compound from PubChem BioAssay (NCI).

A structure can be active in one record and inactive in another.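 Note: values are percent growth. 100 is the growth of untreated cells, values between 100 and 0 indicate rising inhibition; between -100 and 0 indicates cell death.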 The source holds more than one record for some entries. Only these are listed. There may be further records. For part of these data: This drug was run again and again over the years, at its own concentration, as given; one value stands for one run. Brackets with × say how often a value occurs here. Some values that stand alone complete this part of the results. Rule for the calls: active = growth percent below 10; inactive = the rest.

For one assay, the system named is HCC-2998 colon. Kind of assay: NCI-60 one-dose screen, 48 h (100 = growth as untreated, 0 = no growth, -100 = all killed). The following applies: 25 µM; runs of 2000.
A further assay concerns KM12 colon. Described as above. The following applies: 0.25 µM.

On to `COc1cccc2c1C(=O)c1c(O)c3c(c(O)c1C2=O)C[C@@](O)(C(=O)CO)C[C@@H]3OC1CC(N)C(O)C(C)O1` (some centres not stated), for which the growth entry in the assay on HCC-2998 colon was “active: -100% (2×)”; in the assay with KM12 colon (runs of 2006), “inactive: 61%, 50.3%”; in the assay with KM12 colon (runs of 2007), “inactive: 58.6 (2×), 64.5, 57.4, 48.4 (2×), 58.5, 50.3, 59.8 (2×), 55.1, 51.9, 55.4, 64.8, 57.8, 65.1, 50.1, 50.4, 51.5, 65.4, 46.2, 51.4, 57.5 (2×), 62.7, 52.4, 56.7, 60.9, 63.2, 60.5, 57.2, 48.7, 60.2, 64.9, 64.4 (2×), 68.7, 72.3, 38.2, 56.8, 43.9, 60.8, 54, 43% and active: 0.124%”; in the assay on KM12 colon (runs of 2008), “inactive: 62.3, 55.2, 61.2, 59.8, 56.1, 57.7, 61.7, 50.5, 57.8, 59, 64.1, 59.3, 53.3 (2×), 59.6 (2×), 54.3, 31.9, 45.8 (2×), 46.5, 45.9, 48.5, 29.4, 41.3, 32.9, 36.5, 33.6, 38.7, 49.5, 40.5, 107, 55.1, 27.6, 49, 48.6, 22, 47.3, 21, 49.7, 43, 39.5, 32.5, 47.4, 57.5, 56.3, 62.1, 62.2, 71.8, 67.7, 44.1, 45.6, 56.7, 59.4, 50.4, 44.5, 60.9%”; with KM12 colon (runs of 2009) it was “inactive: 44.1, 47.4 (2×), 52.7, 46.6, 48.2, 52.8, 62.3, 72, 46.2, 54.2, 50.9, 61.9, 58.1, 60.7, 59.2 (2×), 60.2 (3×), 59.7, 53.6 (2×), 58.2, 58.7, 57, 46.7, 47.3, 53, 61.1, 64.8, 51.6, 61, 57.8, 70.8, 56.8 (2×), 62.1, 54.9, 57.9, 26, 54.6, 50.6, 48.8, 64.4 (2×), 62.8, 55.5, 53.8, 39.5, 50.1, 28, 21.1, 41.3, 47.1, 52.2, 40, 63.3, 71.1, 56.1, 55.4, 46.4, 76.9, 57.5, 65.8, 62.2, 56.5, 60.6, 56.4%”; in the assay on KM12 colon (runs of 2010) it was “inactive: 63.7, 55, 55.4, 54.6, 62.1, 63.9, 57.2, 59.1, 60.8, 62.4 (3×), 64.1, 53.2, 67.2, 60.7, 54.3, 58.9, 60.2, 50.4, 58.5 (2×), 50.1 (2×), 67.9, 64, 50.7, 59.8, 59.2 (2×), 55.6, 39.2, 51.5, 49.3, 63.4, 61.3, 64.8, 54.2, 53, 56.7, 55.2, 67.6, 52, 74.8, 64.5, 63.1, 64.6, 68.4, 58.8, 57.9%”. For the same compound, the growth entry in the assay with KM12 colon (runs of 2011) is “inactive: 60.3, 62, 60.7 (2×), 62.2 (2×), 62.9, 61.4, 68.5, 61.1, 59.1, 56.8 (2×), 64.1, 55.9, 61 (2×), 56.9, 65.8 (2×), 67.1 (2×), 72.9, 67, 69.7, 72.5, 73, 69.2, 64.3 (2×), 69.9, 76.7, 77.7, 70.8, 54.6, 65.6, 59.7, 44.4, 55.5, 59.8, 54.1, 65.7, 60.5, 59, 61.6, 51, 57.1, 55.2, 58.9, 41.1, 59.2, 65.2, 78, 67.8, 67.9, 73.1, 74.1, 63.8, 54.7%”; in the assay on KM12 colon (runs of 2012), “inactive: 67.3, 53.9, 59.4, 50.9 (2×), 68.2, 60.9, 62.9 (2×), 66.9 (2×), 66.1, 57.4, 56.7, 53.8, 43.6, 58.6, 53.5, 55.7, 63.7, 57.5, 53.1, 55.8, 59, 61.9, 63.5, 68.5, 64.6, 69.8 (2×), 71 (2×), 70.1, 62.8, 73.2, 63.8, 65.7 (2×), 72.8, 73.1, 62.4, 69.4, 62.6, 74, 75.5 (2×), 80.7, 71.4, 81.5, 81.4, 73.8, 72.5, 76.2, 68.1, 57.1, 58.2, 63.1, 49.5, 54.8, 59.6, 69.5, 60.6, 67.5, 46.1, 60.8, 34.4%”; in the assay on KM12 colon (runs of 2013), “inactive: 59.4, 44.4 (2×), 47.1, 55.9, 68, 59.5, 69.1 (2×), 70.1, 70.8, 71, 60.5, 69.7, 58.4 (3×), 71.3, 67.3 (4×), 57.7 (2×), 73 (2×), 79.7, 75, 63.8, 50.7, 58.8, 60.4, 75.2 (2×), 65.8 (2×), 74.6, 72.4, 67.9, 65.7, 64.3, 61.1, 57.9, 59.6, 63.7 (2×), 67.6, 62.9, 56.4 (2×), 68.9, 68.5, 56.5, 60.9, 62.4, 54.9, 39.5, 48.4, 49.2, 55.6 (2×), 58.1, 48.9, 57.4, 44.9, 51.6%”; with KM12 colon (runs of 2014) it was “inactive: 60.5, 55.3 (2×), 46.7, 41.6, 56 (2×), 50.1 (2×), 56.3, 44.9, 57.6, 52.1, 59.5 (3×), 57, 64.2, 58, 50.3, 66.9 (2×), 58.1, 60.2, 59.1 (2×), 58.2, 54.3, 63.6, 62.9, 60.8, 58.9, 51.7, 53.3, 59.7, 59.8, 60.7 (3×), 64.5, 60.6, 64.4 (2×), 55.9, 63.3, 57.8, 54.9 (2×), 57.2, 54 (2×), 59, 55.2, 55.6, 53.6 (2×), 47.4, 51, 55.7 (3×), 56.7, 50.9, 48.6, 67.4, 52.8, 48.3, 48.5, 54.1 (2×), 52.4, 52.9, 69.7, 67.7, 62.2, 50.4, 52.3, 48.4, 50.8%”; in the assay with KM12 colon (runs of 2015) it was “inactive: 58.5 (2×), 51.9, 48, 55.9, 62.2, 60.4, 58, 55.5, 54.3, 58.6, 59.8, 62.4, 64, 65.2, 54.7, 44, 43.7, 49.7 (3×), 50.4, 46.2, 49, 53.4 (3×), 59.1 (2×), 60.9, 55.7 (2×), 57.4, 54.9, 45.1, 48.9 (3×), 50.3, 45.8, 49.2, 48.7, 55.2, 55, 54.8 (2×), 55.1, 61.6, 70.7, 44.6, 48.1 (2×), 53.5, 53.6, 52.2 (2×), 48.8, 51, 51.8 (2×), 49.8 (3×), 48.4, 46.1, 49.1, 53.3, 50.9, 57, 47.8, 49.6, 58.7, 53.2 (2×), 51.6, 53.8, 50.6, 48.5, 47.5, 57.5, 53%”; with KM12 colon (runs of 2016) it was “inactive: 50.4, 47.3, 56.1 (2×), 51.1, 57.4, 55.2 (2×), 48.4 (2×), 56.4 (2×), 55.8 (2×), 62.9, 67.2 (2×), 57.8, 56.7 (2×), 53.9, 54.8, 50.5, 45.2, 52.1, 43.4, 40.9, 54.6, 48.5 (2×), 43.7, 43.2, 61.4, 55, 56.2, 56, 50.8, 49.3, 44.8, 44.5, 45.3, 53.8, 51 (2×), 57.3, 62.2 (3×), 53.3, 62.3, 57.1 (2×), 58 (2×), 61.7, 53.5, 51.9, 42.6, 54, 52.4, 63.9, 61.6, 64.3, 67.8, 57.5, 55.9, 59.7, 55.1, 69.2, 62.4, 67.6, 64.4, 71, 63.5, 66.5, 67.5, 70.3, 65.9, 52.5, 62.7, 63.3, 65.7, 61.5%”.
